Values joined by “and” are separate entries in the source; they are usually repeats but may differ in a detail not shown here. Identical values can stand only once. Among all 270,000 compounds or so, about 5,800 (2.1%) were called active. The inconclusive results got no clear call from the source; some entries with a clear call stand among them for comparison. Calls come from the whole dose curve; as a rule, active = well fitted inhibition curve with a large enough effect; inconclusive = small, poorly fitted or top-dose-only effect; inactive = flat fitted curve, though single readings scatter. Potencies of inconclusive entries are doubtful fits and often do not repeat.
target: Microtubule-associated protein tau (Homo sapiens) (UniProt P10636); test: qHTS for Inhibitors of Tau Fibril Formation, Thioflavin T Binding; conditions: recombinant tau K18 P301L (four-repeat tau fragment), heparin-induced fibrillization, ThT fluorescence; series mostly up to 57.4 µM; activity, negative = inhibition: at the top concentration; note: nearly all actives have a fitted effect of over 55% in size
Chain of UniProt P10636 (P10636 whole entry, looked up, the tested form may be a part): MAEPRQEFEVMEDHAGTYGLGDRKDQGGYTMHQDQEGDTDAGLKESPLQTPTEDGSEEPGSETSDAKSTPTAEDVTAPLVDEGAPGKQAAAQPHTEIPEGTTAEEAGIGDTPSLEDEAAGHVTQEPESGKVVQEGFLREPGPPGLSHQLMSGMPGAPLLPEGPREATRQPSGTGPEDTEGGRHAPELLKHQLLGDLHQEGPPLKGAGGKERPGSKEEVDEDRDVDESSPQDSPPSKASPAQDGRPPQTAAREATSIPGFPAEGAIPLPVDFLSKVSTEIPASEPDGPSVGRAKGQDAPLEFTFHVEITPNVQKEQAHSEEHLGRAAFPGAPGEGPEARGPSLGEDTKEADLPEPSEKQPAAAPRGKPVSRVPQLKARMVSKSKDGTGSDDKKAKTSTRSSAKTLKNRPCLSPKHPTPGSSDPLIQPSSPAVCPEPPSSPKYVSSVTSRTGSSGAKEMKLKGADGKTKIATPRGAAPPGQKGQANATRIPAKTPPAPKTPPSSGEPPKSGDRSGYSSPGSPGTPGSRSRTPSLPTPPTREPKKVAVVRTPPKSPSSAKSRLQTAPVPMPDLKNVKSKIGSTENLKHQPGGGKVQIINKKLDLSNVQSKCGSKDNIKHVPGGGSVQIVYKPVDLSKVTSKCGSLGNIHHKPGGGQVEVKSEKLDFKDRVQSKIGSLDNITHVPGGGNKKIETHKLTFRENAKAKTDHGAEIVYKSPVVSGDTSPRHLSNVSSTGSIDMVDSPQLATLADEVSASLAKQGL
Procedure, shortened: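 Tau K18 P301L fragment (15 uM unlabeled plus 0.24 uM Alexa 594-labeled) in 100 mM sodium acetate pH 7 with compound, fibrillization induced by 20 uM heparin for 6 hr at 37 C. Thioflavin T (30 uM) added, fluorescence read after 1 hr (ex 450, em 510 nm).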
% is set by controls: 0 for no effect and ±100 for the full control effect; potency is the fitted concentration of half-maximal effect; tags give direction and shape of the fitted curve.

SMILES	Potency	activity, negative = inhibition
COc1ccc2c(c1)CC/C(=C\C=C\c1ccccc1)C2=O	active: 2.51 µM	
CSC(=S)N/N=C/c1c[nH]c2ccccc12	inconclusive: 14.1 µM [inhibitor, partial curve]	
COc1ccc(N(C)C(=S)Nc2ccc3nc(C)c(C)nc3c2)cc1	inconclusive: 31.6 µM [inhibitor, single point]	
COc1ccc(C(=O)N/N=C/c2ccc(N3CCOCC3)o2)cc1OC	inconclusive: 11.2 µM [inhibitor, partial curve, poor fit]	
O=S(=O)(NCCOCC(F)(F)F)c1ccc2oc3ccccc3c2c1		inactive: 6.09%
O=C(/C=C/c1ccco1)N1CCN(C/C=C/c2ccccc2)CC1		inactive: -17.2%
COc1cc(CCNC(C)=O)c(C(=O)/C=C/c2cccc(OC)c2OC)cc1OC		inactive: -13.9%
COc1ccc(-n2cnc3ccccc32)cc1		inactive: -15.6%
CC(C)C(=O)Nc1ccc(NC(=S)NC(=O)c2ccc([N+](=O)[O-])cc2)cc1	active: 7.08 µM	
O=C(CC1N=C2c3ccccc3N=C(SCc3cccc(Cl)c3)N2C1=O)NCCc1ccccc1 (stereo not given)		inactive: -12.2%
Cn1cnnc1Sc1cc(N2CCN(S(=O)(=O)c3ccc(Cl)c(Cl)c3)CC2)ccc1[N+](=O)[O-]	inconclusive: 14.1 µM [inhibitor, partial curve]	
Cc1ccc(CCNC(=O)c2c[nH]c3ccc(S(=O)(=O)Nc4cccc(C(F)(F)F)c4)cc3c2=O)cc1	inconclusive: 22.4 µM [activator, partial curve]	
CCCS(=O)(=O)c1nnnn1-c1cccc(OC)c1		inactive: 3.34%
CCC1=C(c2ccc(C)cc2)S(=O)(=O)N=C1N1CCC(C(=O)NCCc2ccc(Cl)cc2)CC1		inactive: -11.1%
COc1cc2c(cc1NC(=O)Nc1cccc(C)c1)oc1ccccc12	inconclusive: 4.47 µM [inhibitor, partial curve, poor fit]	
N=c1sccn1CC(=O)Nc1ccc(Cl)cc1[N+](=O)[O-]		inactive: -2.67%
Cc1ncc(CO)c(/C=N/NC(=O)c2cc(O)c(O)c(O)c2)c1O	inconclusive: 22.4 µM [inhibitor, partial curve]	
Oc1ccc(Br)cc1-c1nc2cnccn2c1NC1CCCC1	inconclusive: 25.1 µM [inhibitor, single point]	
Cc1oc(-c2ccc(C(=O)NCc3ccccc3Cl)cc2)nc1CN1CCc2ccccc21	inconclusive: 25.1 µM [inhibitor, single point]	
COc1cc(/C=C2\SC(N3CCc4ccccc4C3)=NC2=O)cc(OC)c1OC	inconclusive: 4.47 µM [inhibitor, partial curve]	
CCN(C(=O)c1c(C)oc2ncn(CC(C)C)c(=O)c12)c1cccc(Cl)c1		inactive: -0.424%
CC(C)Cc1c2c([nH]c(=S)c1C#N)CCCC2		inactive: -11.1%
CSc1ccccc1C(=O)Nc1ccc(C)cc1C	inconclusive: 35.5 µM [inhibitor, single point]	
C=CCn1c(O)c(N=NC(=O)c2ccc3c(c2)OCO3)c2ccccc21	inconclusive: 1 µM [inhibitor, full curve, poor fit]	

SMILES	Potency	activity, negative = inhibition
Nc1ccc2oc(-c3ccccc3Cl)cc(=O)c2c1O	inconclusive: 14.1 µM [inhibitor, partial curve] and inconclusive: 14.1 µM [inhibitor, partial curve, poor fit]	
Cc1cccc(C2c3[nH]c4ccccc4c3CCN2C(=O)c2noc3c2CCCC3)n1 (stereo not given)	inconclusive: 14.1 µM [inhibitor, single point]	
CCOC(=O)N1CCc2c(sc(NCc3cccs3)c2C(=O)Nc2ccc(OC)cc2OC)C1	inconclusive: 20 µM [inhibitor, partial curve]	
N[C@H](C(=O)O)c1cccc(O)c1	inconclusive: 31.6 µM [inhibitor, single point] and inconclusive: 28.2 µM [inhibitor, single point]	
CC(=C\c1ccccc1)/C=C1/SC(=S)N(CCC(=O)Nc2ccccn2)C1=O	inconclusive: 7.08 µM [inhibitor, partial curve]	
CCN1CCN(CCCNC(=O)Cn2c(-c3cccs3)cc3cc(F)ccc32)CC1		inactive: -3.6%
Cc1cc2c(cc1S(=O)(=O)CCC(=O)N1CCCCC1C)OCC(=O)N2 (stereo not given)	inconclusive: 28.2 µM [inhibitor, single point]	
CCOC(=O)c1ccc(NC(=O)C(=O)NCc2ccncc2)cc1	inconclusive: 35.5 µM [inhibitor, single point]	
CCc1ccc(NC(=O)CSc2nc(=O)n(Cc3ccncc3)c3c2CCC3)cc1		inactive: -1.19%
Cc1snc(S(=O)(=O)/C(C#N)=N/Nc2ccc(C(F)(F)F)cc2)c1C#N	inconclusive: 28.2 µM [inhibitor, partial curve]	
CC1CCc2sc(C(=O)Nc3ccc(N4CCOCC4)cc3)cc2C1 (stereo not given)	inconclusive: 1.12 µM [inhibitor, partial curve]	
Cc1ccc(N=c2ssnc2Cl)cc1	active: 14.1 µM	
CCCNC1=C(N(C(C)=O)c2cccc(F)c2)C(=O)c2ccccc2C1=O		inactive: -12.3%
O=C(Nc1cnn(Cc2ccc(Cl)cc2Cl)c1)c1noc2c1CCc1ccccc1-2	inconclusive: 12.6 µM [inhibitor, partial curve]	
COc1ccc(C(CC(=O)Nc2cc(OC)c(OC)c(OC)c2)N2Cc3ccccc3C2=O)cc1 (stereo not given)		inactive: -12.7%
O=C(Cn1c(=O)nc(-c2ccccc2)c2cc(Cl)ccc21)NCc1ccc(Cl)cc1	inconclusive: 20 µM [inhibitor, partial curve]	
CCOC(=O)c1sc(NC(=O)c2cccnc2)c(C#N)c1C		inactive: -18.4%
COc1ccc(-c2nc3cccc(C)n3c2NCC2CCCO2)cc1O (stereo not given)	inconclusive: 4.47 µM [inhibitor, partial curve]	
Cc1sc2nc3c(SC(C)C(=O)O)cc(C(=O)c4ccccc4O)cn3c(=O)c2c1C (stereo not given)	active: 14.1 µM	
OCCN1CCN(C2Cc3cc(Cl)ccc3Sc3ccc(Cl)cc32)CC1 (stereo not given) (tested in a mixture with another compound)	inconclusive: 22.4 µM [inhibitor, single point]	
Cc1ccc(C)c(C2=NNC(=NCc3ccccc3)SC2)c1	inconclusive: 22.4 µM [inhibitor, partial curve]	
Cc1ccc(C(c2c(O)cc(C)n(Cc3ccco3)c2=O)N2CCC(C)CC2)cc1 (stereo not given)	inconclusive: 35.5 µM [inhibitor, single point]	
CC(C)(C)Nc1oc(-c2ccccc2)nc1-c1ccccc1F		inactive: -12.5%
Cc1ccc(NC(=O)CSc2nc3ccccc3c(=O)n2CCCN2CCCCC2)cc1Cl	inconclusive: 35.5 µM [inhibitor, single point]	

SMILES	Potency	activity, negative = inhibition
COc1ccc(-c2cc(-c3ccccc3)c(C#N)c(S(C)=O)n2)cc1 (stereo not given)	inconclusive: 20 µM [inhibitor, partial curve]	
COc1ccccc1NC(=O)Cn1nc(-c2ccc(Cl)cc2)c2ccccc2c1=O		inactive: -15.1%
O=C(NCc1ccccc1)C(=O)Nc1c2c(nn1-c1ccccc1)CSC2	inconclusive: 44.7 µM [inhibitor, single point]	
O=C(NCc1n[nH]c(=S)n1-c1ccc(Cl)c(Cl)c1)c1ccc(S(=O)(=O)N2CCOCC2)cc1		inactive: -5.12%
COc1cccc(-c2csc(N3CCN(CC(=O)NNC(=O)c4ccc(Cl)cc4)CC3)n2)c1	inconclusive: 0.631 µM [inhibitor, full curve, poor fit]	
COC(=O)c1cn(NC(=O)/C=C/c2ccc(OC)c(OC)c2)c(=O)c2ccccc12	inconclusive: 10 µM [inhibitor, partial curve]	
COC(=O)c1ccc(Cn2cc([N+](=O)[O-])cn2)cc1		inactive: -11.9%
Cc1ccc2c(c1)c1c(c(=O)n(Cc3ccccc3)c(=O)n1CC(=O)Nc1ccccc1F)n2C		inactive: 10.2%
COc1ccccc1NS(=O)(=O)c1cccc(-n2c(O)c(C=Nc3ccccc3C(=O)O)c3ccccc3c2=O)c1	active: 15.8 µM	
N#CC(c1ccccc1)c1ccc2c(C(F)(F)F)cc(C(F)(F)F)nc2n1 (stereo not given)	inconclusive: 22.4 µM [inhibitor, partial curve]	
CCOC(=O)c1cccc(NC(=O)c2cnc3sc(N4CCOCC4)nn3c2=O)c1		inactive: -5.68%
CC(=O)N1CCN(S(=O)(=O)c2cccc(C(=O)Nc3ccc4c(c3)OCO4)c2)CC1	inconclusive: 20 µM [inhibitor, partial curve]	
COC(=O)C(=Cc1ccccc1[N+](=O)[O-])C(=O)OC	active: 25.1 µM	
Cc1cccc(-c2nc(CN3CCCC(C(=O)NCCc4ccc(Cl)cc4)C3)c(C)o2)c1 (stereo not given)	inconclusive: 25.1 µM [inhibitor, single point]	
CCC1CCCCN1Cc1ccc(N)cc1 (stereo not given)		inactive: 6.51%
CC(C)C(OC(=O)c1cccs1)C(=O)NCc1ccc2c(c1)OCO2 (stereo not given)		inactive: 0.793%
COc1ccc(OCCNc2cc(N3CCOCC3)ccc2[N+](=O)[O-])cc1	active: 5.01 µM	
CCCCOc1ccc(-c2cc(C(F)(F)F)c(C#N)c(SCC(=O)O)n2)cc1	inconclusive: 12.6 µM [inhibitor, partial curve]	
O=C(Nc1sc2c(c1C(=O)NCC1CCCO1)CCCC2)c1cc(=O)c2ccccc2o1 (stereo not given)	inconclusive: 3.98 µM [inhibitor, full curve]	
CCOc1ccc2c(c1)/C(=N/N1C(=O)c3ccccc3C1=O)C(=O)N2	inconclusive: 39.8 µM [inhibitor, partial curve]	
COc1ccc2cc3[n+](cc2c1OC)CCc1cc2c(cc1-3)OCO2	active: 17.8 µM	
Cc1ccccc1CCNC(=O)c1ccc2c(c1)nc1n2CCCCC1	inconclusive: 7.94 µM [inhibitor, partial curve]	
